Laboratory results from US20240101686A1 (SIMCERE ZAIMING PHARMACEUTICAL, published 2024).
Where two headings read alike, the source gives them in different places.

Columns and labels:
[1] = target: T1, murine EGFR protein (murine, UniProt Q01279 25-647)
T1 construct: Bought protein

[2] = target: T1, murine EGFR protein; remark: listed apart in the source
[3] = target: T1, murine EGFR protein; remark: listed apart in the source
[4] = target: T1, murine EGFR protein; remark: listed apart in the source
[5] = target: T1, murine EGFR protein; remark: listed apart in the source
[6] = target: T1, murine EGFR protein; remark: listed apart in the source
[7] = target: T1, murine EGFR protein; remark: listed apart in the source
[8] = target: T1, murine EGFR protein; remark: listed apart in the source
[9] = target: T2, human EGFRvIII-His tag protein (extracellular domain Leu25-Ser378) (human, UniProt P00533 partial chain)
T2 construct: Made in HEK293E cells, purified on nickel column; also called human EGFRvIII protein; EGFRvIII protein; not shown: His tag

[10] = target: T2, human EGFRvIII-His tag protein …; remark: listed apart in the source
[11] = target: T2, human EGFRvIII-His tag protein …; remark: listed apart in the source
[12] = target: T2, human EGFRvIII-His tag protein …; remark: listed apart in the source
[13] = target: T2, human EGFRvIII-His tag protein …; remark: listed apart in the source
[14] = target: T2, human EGFRvIII-His tag protein …; remark: listed apart in the source
[15] = target: T2, human EGFRvIII-His tag protein …; remark: listed apart in the source
[16] = target: T2, human EGFRvIII-His tag protein …; remark: listed apart in the source

OD450 [1] | OD450 [2] | OD450 [3] | OD450 [4] | OD450 [5] | OD450 [6] | OD450 [7] | OD450 [8] | OD450 [9] | OD450 [10] | OD450 [11] | OD450 [12] | OD450 [13] | OD450 [14] | OD450 [15] | OD450 [16] | Binder
1.77 | 0.23 | 0.05 | 0.05 | 1.86 | 1.96 | 1 | 0.08 |  |  |  |  |  |  |  |  | S008-NB149-64 VHH-Fc antibody (Fc fusion) EVQVVESGGGLVQPGGSLRLSCVASGIIFSSYAMGWYRQAPGKQRELVARISSGGGLYYEDPVKGRFTISRDNARNTVYLQMSSVKPEDTAVYYCNVVPYTPGYWGQGTQVTVSS[human IgG1 Fc with changes not shown]
2.17 | 0.52 | 0.05 | 0.05 | 2.16 | 2.21 | 1.77 | 0.1 | 2.01 | 2.32 | 0.13 | 0.05 | 0.62 | 2.06 | 0.04 | 1.82 | S008-NB148-77 VHH-Fc antibody (Fc fusion) EVQVVESGGGLVQAGGSLRLSCVASGFDFSDSVMGWYRQAPGKQREAVAIISSVGQSNYRDSVQGRFTVSRSNTENTMYLQMDSLKPEDTAIYYCKKFGPGEYWGQGTQVTVSS[human IgG1 Fc with changes not shown]
2.39 | 0.08 | 0.05 | 0.06 | 1.36 | 2.46 | 0.27 | 0.06 | 2.38 | 2.78 | 0.24 | 0.15 | 0.71 | 2.64 | 0.08 | 1.98 | S008-NB148-30 VHH-Fc antibody (Fc fusion) EVQLVESGGGLVRAGGSLRLSCAASGTISSYDVVGWYRQAPGKQRELVALIGTDRWLNLGDFAKGRFTMSTDDAANTVDLEMNSLKPEDTAVYYCYTFQHTVGPRWGQGTQVTVSS[human IgG1 Fc with changes not shown]
0.07 | 0.05 | 0.05 | 0.05 | 0.05 | 0.05 | 0.05 | 0.05 |  |  |  |  |  |  |  |  | S008-NB149-60 VHH-Fc antibody (Fc fusion) QLQLVESGGGLVQPGGSLRLSCAASRSISSINTMTWYRYQGPGKERELVALITLGGTTNYADSVKGRFTISRDDAKNTLYLEMNSLKPEDTAVYYCNAVPPFRWGQGTQVTVSS[human IgG1 Fc with changes not shown]
2.99 | 0.92 | 0.09 | 0.07 | 2.77 | 2.79 | 2.46 | 0.2 | 2.59 | 2.57 | 0.18 | 0.09 | 0.75 | 2.54 | 0.07 | 2.06 | S008-NB148-48 VHH-Fc antibody (Fc fusion) QLQLVESGGGLVQAGGSLKLSCVASGFTFSNYAMAWYRQAPGKQRELIASCSASCIWTNYGASVKGRFTMSLDNAKKTVYLQMDSLKPEDTAVYYCRNLDANYWGQGTQVTVSS[human IgG1 Fc with changes not shown]
2.93 | 1 | 0.07 | 0.07 | 2.73 | 2.85 | 2.43 | 0.19 | 2.22 | 2.5 | 0.15 | 0.07 | 0.69 | 2.4 | 0.07 | 1.86 | S008-NB148-8 VHH-Fc antibody (Fc fusion) EVQLVESGGGLVQAGGSLRLSCVVSGSTFSSYAMGWYRQAPGKQRELVAAISSGVSANVADSLKGRFAISRDNAKNAVYLQMNSLKPEDTAVYYCNTLPRSMPYWGKGTLVTVSS[human IgG1 Fc with changes not shown]
2.72 | 0.22 | 0.05 | 0.05 | 2.38 | 2.71 | 1.34 | 0.07 | 2 | 2.41 | 0.08 | 0.06 | 0.25 | 2.41 | 0.06 | 1.21 | S008-NB148-2 VHH-Fc antibody (Fc fusion) EVQVVESGGGLVQAGGSLRLSCAASGSTFSSYAMTWYRQAPGKQRELVAAISSGGSTNYAASVKGRFTISRDNAKNTLYLQMNTLKPEDTAVYYCNTDWGNGFSAEYDYWGQGTQVTVSS[human IgG1 Fc with changes not shown]
0.07 | 0.05 | 0.05 | 0.08 | 0.05 | 0.05 | 0.05 | 0.05 | 2.08 | 2.52 | 0.16 | 0.07 | 0.75 | 2.47 | 0.07 | 1.92 | S008-NB148-5 VHH-Fc antibody (Fc fusion) QLQLVESGGGLVQAGGSLRLSCAVSISTFTTNGWDWYRQAPGKQRELVALISNDGTTTYTDSVKGRFTISRDGAKNTVYLQMNNLKPEDTAVYYCNTIPPAGSWGQGTQVTVSS[human IgG1 Fc with changes not shown]
0.09 | 0.07 | 0.06 | 0.07 | 0.06 | 0.08 | 0.06 | 0.06 |  |  |  |  |  |  |  |  | S008-NB149-20 VHH-Fc antibody (Fc fusion) EVQVVESGGGLVQPGGSLRLSCAASGSGFTINAMTWYRRAPGKERELVAIITNGGITNYADSVKGRFTISRDNAKSTVYLQMDGLEPEDTAVYYCNIVPPVYWGQGTQVTVSS[human IgG1 Fc with changes not shown]
0.06 | 0.05 | 0.05 | 0.05 | 0.05 | 0.05 | 0.05 | 0.05 | 1.95 | 2.14 | 0.1 | 0.05 | 0.53 | 2.21 | 0.04 | 1.6 | S008-NB149-12 VHH-Fc antibody (Fc fusion) QVQLVESGGGLVQPGGSLRLSCVVSESISVINAMTWYRQAPGKQRELVALISRGGSTNYADSVKGRFTISRDNAKNSVYLQMNSLKPEDTALYYCNVVPPLGSWGQGTQVTVSS[human IgG1 Fc with changes not shown]
2.98 | 0.17 | 0.05 | 0.05 | 2.43 | 2.83 | 1.13 | 0.06 |  |  |  |  |  |  |  |  | S008-NB148-52 VHH-Fc antibody (Fc fusion) EVQLVESGGGLVQAGGSLRLSCAASGFRIINDRMAWYRQAPGKQREAVASIDYAGSTTYAEFVKGRFTISRDNTKNMVTLQMNNLEPEDTAVYYCNTAPIARFRGQGTQVTVSS[human IgG1 Fc with changes not shown]
0.08 | 0.05 | 0.05 | 0.05 | 0.05 | 0.06 | 0.05 | 0.05 | 2.37 | 2.71 | 0.17 | 0.07 | 0.77 | 2.41 | 0.08 | 2.06 | S008-NB148-25 VHH-Fc antibody (Fc fusion) EVQLVESGGGLVQPGGSLRLSCAVSQSISSINAMDWYRQAPGKQRELVAIIFNNGRTNYADSVKGRFTISRDNARNTVYLQMNSLKPEDTAVYYCNIVPPLRNWGQGTQVTVSS[human IgG1 Fc with changes not shown]
